Our source for the survival values is PubChem BioAssay AID463173 (ICCB-Longwood Screening Facility, Harvard Medical School, 2010).

Among all 52,000 compounds or so, about 4,300 (8.3%) were called active. No stated cut-off is given here; in the data, active means survival mostly below about 52% (no sharp cut-off); inactive means mostly above about 56%. The list shows a part of the results.

In this assay the test system is DeltatarO mutant. Description: S. aureus survival, RN4220 and DeltatarO strains – OD600, teichoic acid synthesis inhibitors, primary screen (AID 463173). Conditions: S. aureus RN4220 wild type/DeltatarO growth, OD600, 18 h, stronger effect = lower value, screened at 18.75 µg/mL (by protocol).
Turning to `COc1ccc(NC(=O)Cn2nc(C(F)(F)F)c3c2CCCC3)cc1OC`, the survival was inactive: 74%.
To `COc1cc(NC(=O)c2nc3ccccc3n(C)c2=O)cc(OC)c1OC` belongs inactive: 92%.
Turning to `Cc1ccc(CCNC(=O)CCS(=O)(=O)c2cc3c(cc2Cl)NC(=O)CO3)cc1`, the survival was inactive: 92%.
To `CC(C)NC(=O)CN1C(=O)c2cccnc2Sc2ccccc21` belongs inactive: 71%.
On to `CC(=O)c1cccc(NC(=O)c2cc(C)nc3c2c(C)nn3-c2cccc(Cl)c2C)c1`, for which the survival is inactive: 89%.
With `O=C(OCc1cc(=O)n2nc(C3CC3)sc2n1)c1ccccc1Cl` the figure was inactive: 91%.
To `COc1ccc(CNC(=O)C2=CC(c3cccc(OC)c3)=NS(=O)(=O)N2C)cc1` belongs inactive: 74%; to `CCN(c1ccccc1C)S(=O)(=O)c1nnc(NC(=O)c2ccco2)s1`, active: 41%.
Turning to `COc1ccc(Nc2nnc(-c3ccc(C)c(S(=O)(=O)NCCO)c3)c3ccccc23)cc1C(N)=O`, the survival was inactive: 57%.
With `Cc1ccc(-n2ncc(C(=O)NC3CCCCC3)c2C2CCN(C(=O)OC(C)(C)C)CC2)cc1` the figure was inactive: 116%.
As for `COc1ccccc1OCC(=O)N1CCC(c2nc3ccccc3o2)CC1`, the survival is active: 0%.
`CCCS(=O)(=O)c1ncc(Cl)c(C(=O)Nc2c(C(=O)Nc3ccccc3)oc3ccccc23)n1`: the survival is inactive: 59%.
With `CNC(=O)c1c(NC(=O)c2nc(SCc3ccc(C)cc3)ncc2Cl)sc2c1CCCC2` the figure was active: 37%.
As to `O=C(CNC1CC1)NCc1cccs1`, the survival was inactive: 87%.
With `COc1cccc(CNC(=O)C2CCN(C(=O)c3cnn(-c4ccccc4)c3-n3cccc3)CC2)c1` the figure was inactive: 76%.
With `Cc1ccc(NC(=O)Nc2cn(CC(C)C)c(=O)c3ccccc23)cc1N(C)C` the figure was inactive: 78%; with `Cc1cccn2c(=O)cc(CSc3nnc(NC(=O)COc4ccccc4)s3)nc12`, inactive: 84%.
To `COC(=O)c1cc2sccc2n1CC(=O)Nc1ccc(OC)c(OC)c1` belongs inactive: 86%; to `Cc1c(Cl)cccc1NC(c1ccc(F)cc1)c1nnc(-c2ccccc2)o1` (centres undefined), inactive: 87%; to `COc1ccc(C2=C(N3CCN(c4cc(C)ccc4C)CC3)c3ccccc3C2=O)cc1`, active: 28%.
Turning to `CCc1ccc(-n2c(=O)c3sc4ccccc4c3n(CC(=O)NCc3ccccc3)c2=O)cc1`, the survival was inactive: 85%.
With `O=C(c1ccc2c(c1)N(Cc1cccc(F)c1)C(=O)c1ccccc1S2)N1CCC2(CC1)OCCO2` the figure was inactive: 78%.
With `O=C(Cn1cccc1C(=O)c1ccccc1)NCc1ccccc1Cl` the figure was inactive: 89%.
To `O=C(Nc1cccnc1)c1cc(-c2ccc(Cl)cc2)on1` belongs inactive: 61%.
Take `CCc1c(C)nc2cc(-c3cc(OC)cc(OC)c3)nn2c1NCCCN1CCOCC1`: the survival was inactive: 95%.
As to `COc1ccc(CNc2nc3c(-c4cccc(F)c4)nnn3c3ccccc23)cc1`, the survival was inactive: 88%.
As to `Cc1ccc(NC(=O)c2c(C)oc3c2C2=NCCN2C=N3)cc1F`, the survival was inactive: 67%.
To `COc1ccc(-c2c(C)nn3c(C(F)(F)F)cc(-c4ccccc4)nc23)cc1OC` belongs inactive: 57%; to `COc1ccc(N(C)C(=O)c2cc3c(s2)-c2c(C)cccc2OC3)c(OC)c1`, active: -1%; to `CN(CC(=O)NCc1ccc(F)cc1)S(=O)(=O)c1ccc2[nH]c3c(c2c1)CCCC3`, inactive: 117%.
With `CSc1nnc(C2CCCN(CC(=O)N3CCCC3)C2)n1C` (centres undefined) the figure was inactive: 85%; with `O=C1c2ccccc2-c2nc3ncnn3c(-c3ccc4c(c3)OCO4)c21`, active: 49%; with `COc1cc(Cl)c(C)cc1NC(=O)CCc1nc2cccnc2n1Cc1cccs1`, inactive: 83%.
With `CCN(CC)CCCNC(=O)c1ccc(Cn2c(=O)[nH]c3cc(OC)c(OC)cc3c2=O)cc1` the figure was inactive: 77%.
Turning to `CCOC(=O)c1c(S(=O)(=O)N2CCC(C(=O)N3CCN(c4ccccc4F)CC3)CC2)c(C)n(C)c1C`, the survival was inactive: 99%.
With `Cn1cc(C(=O)NCc2ccccc2Cl)c(=O)c2cc(S(=O)(=O)N3CCCCCC3)ccc21` the figure was inactive: 67%; with `Cc1ccc(-n2c(=O)c3c4c(sc3n(CC(=O)Nc3cccc(Cl)c3)c2=O)CCCCC4)cc1C`, active: 105%; with `Fc1ccc(C(NCCc2ccccc2)c2nnc(-c3ccccc3Cl)o2)cc1` (centres undefined), inactive: 104%.
With `O=C(CNCC1CCCCC1)Nc1ccccc1N1CCCCC1` the figure was inactive: 84%.
To `COc1ccc2nc(SCC(=O)O)[nH]c2c1` belongs inactive: 104%; to `Cc1cccc(C)c1OCC(=O)NC(Cc1c[nH]c2ccccc12)C(=O)O` (centres undefined), inactive: 143%; to `Cc1ccc(S(=O)(=O)NCc2nc3nc(C)cc(C)n3n2)cc1`, inactive: 127%.
Consider `Cc1ccc(C)c(CN2CCCN(CC(=O)Nc3ccc(C)c(C)c3)S2(=O)=O)c1`, for which the survival is inactive: 94%.
Regarding `N#Cc1ccc(NC(=O)CCC(=O)O)cc1`, the survival is inactive: 90%.
In the case of `Cc1ccccc1OCCCCn1c(CCNC(=O)C(C)(C)C)nc2ccccc21`, the survival is active: 36%.
To `O=C(CSc1ccccc1)NCc1ccc2c(c1)CCN2C(=O)c1ccccc1` belongs inactive: 64%; to `CCn1cc(S(=O)(=O)c2cccc(Cl)c2)c(=O)c2cc(F)c(N3CCN(C)CC3)cc21`, inactive: 84%.
To `CN(Cc1ccccc1)C(=O)CCS(=O)(=O)c1ccc2c(c1)oc(=O)n2C` belongs inactive: 101%; to `COC(=O)c1ccccc1NC(=O)c1ccc(-c2nc(CSc3ccc(C)cc3)c(C)o2)cc1`, inactive: 72%.
Regarding `COc1ccc(CCNC(=O)c2cn(C)c3ccc(S(=O)(=O)N4CCOCC4)cc3c2=O)cc1OC`, the survival is inactive: 86%.
With `CC(C)N(Cc1ccccc1)C(=O)Cn1ncc2c3ccccc3n(Cc3ccccc3)c2c1=O`, the survival is inactive: 86%.
On to `CCOC(=O)c1ccc(NC(=O)CCCn2c(=O)c3cccn3c3cccnc32)cc1`, for which the survival is inactive: 86%.
To `Cc1cccc(Cn2c(SCc3ccc(C(=O)NC4CCCC4)cc3)nc3cccnc32)c1` belongs inactive: 144%.
With `Cc1nn(-c2ccc(Cl)cc2)c2nc(-c3cccnc3)cc(C(F)(F)F)c12` the figure was active: 39%; with `COc1ccc(Br)cc1CNC(=O)CN1C(=O)CCCc2ccccc21`, inactive: 80%.
With `CC(C)(C)c1ccc(C(=O)Nc2nc3nc(-c4ccccc4)cc(=O)n3[nH]2)cc1` the figure was inactive: 94%.
Regarding `C#CC(C)(CC)NC(=O)Cn1nnc(-c2ccc(OCc3ccccc3Cl)cc2)n1` (centres undefined), the survival was inactive: 68%.
To `COc1cccc(NC(c2nnc(-c3ccccc3)o2)c2ccc(F)cc2Cl)c1` (centres undefined) belongs inactive: 54%.
With `CC(C)CC(=O)N1CCN(S(=O)(=O)c2ccccc2)CC1` the figure was inactive: 86%.
To `Cc1ccc(OC(=O)CCC(=O)N2CCN(C(=O)CCC(=O)Oc3ccc(C)cc3)CC2)cc1` belongs inactive: 108%.
As for `COc1ccc(C(C(=O)Nc2ccc(C(C)C)cc2)N(C)C(=O)Cc2cccs2)cc1` (centres undefined), the survival was inactive: 127%.
To `Cc1ccccc1Nc1nnc(-c2ccc(C)c(S(=O)(=O)N3CCN(C)CC3)c2)c2ccccc12` belongs inactive: 78%; to `O=C(Cc1csc2ccccc12)NCc1ccc(F)cc1`, inactive: 71%.
To `COc1cccc(NC(=O)CSC2=Nc3ccccc3C3=NC(CC(=O)NCc4cccs4)C(=O)N23)c1` (centres undefined) belongs inactive: 85%; to `COc1ccc(C2c3c(oc4cc(C)cc(C)c4c3=O)C(=O)N2Cc2ccco2)cc1OC` (centres undefined), inactive: 69%.
With `Cc1cccc(N2CCN(C(=O)c3cc4c(=O)[nH]c5ccc(C)cc5c4s3)CC2C)c1` (centres undefined) the figure was inactive: 95%; with `COc1ccc(CNC(=O)CSCc2cnn(-c3ccccc3)c2-n2cccc2)cc1OC`, inactive: 106%; with `CC(=O)N1CCN(c2nc3c(F)cc(F)cc3s2)CC1`, inactive: 73%.
As for `COc1ccc(Cn2c(CNC(=O)Cc3cccc([N+](=O)[O-])c3)nc3cccnc32)cc1`, the survival was active: -5%.
As for `COCCCNC(=O)C1CCCN(c2ncnc3onc(C)c23)C1` (centres undefined), the survival was inactive: 91%.
With `COc1ccc(CCNC(=O)c2ccc3c(Cl)c4c(nc3c2)CCCC4)cc1OC` the figure was inactive: 75%; with `Cc1c(CCC(=O)NCc2ccc(F)cc2)c(=O)oc2cc(O)ccc12`, inactive: 103%.
To `Cc1ccc2oc(C(=O)Nc3nc(-c4ccc(F)cc4)ns3)c(C)c2c1` belongs inactive: 71%; to `Cc1ccccc1OCC(=O)Nc1ccc(C(=O)OCc2cc(=O)n3c(C)csc3n2)cc1`, inactive: 126%.
To `CCOC(=O)c1ccc(CN(Cc2ccc(OC)cc2)S(=O)(=O)c2cccc(C(F)(F)F)c2)cc1` belongs inactive: 73%.
In the case of `COc1ccccc1C(=O)Nc1c(C(=O)c2ccccc2)oc2ccccc12`, the survival is active: -1%.
To `CCOc1ccc(N(CC)C(=O)c2noc3c2COc2ccc(C)cc2-3)cc1` belongs inactive: 73%.
To `O=c1c(N2CCc3ccccc3C2)csc2ccc(F)cc12` belongs inactive: 70%.
To `CC1=C(C(=O)Nc2ccccc2C)C(c2cccs2)n2nc(SCc3cc(C)ccc3C)nc2N1` (centres undefined) belongs inactive: 100%.
For the molecule `CCOc1ccccc1NC(=O)C1=C(C)Nc2ncnn2C1c1sccc1C` (centres undefined), the survival was inactive: 92%.
With `Cc1ccc(CNC(=O)c2c(-c3ccc(Br)cc3)noc2C)o1` the figure was inactive: 71%; with `O=C(CCCn1c(=O)c2cccn2c2cccnc21)Nc1ccccc1C(F)(F)F`, inactive: 86%; with `CCOC(=O)Cn1c(=O)n(CC2CCCO2)c2nc(-c3ccccc3Cl)nc(C(N)=O)c21` (centres undefined), inactive: 81%.
With `COc1ccc(NC(=O)c2c(N)c(C(=O)c3ccc(OC)cc3)n3ccccc23)cc1` the figure was inactive: 86%; with `CCOC(=O)c1cc2sccc2n1CC(=O)N1CCCC1`, inactive: 97%.
With `Cc1c(C(=O)NCCc2ccc(Cl)cc2)cccc1-n1cnc2cccnc21`, the survival was inactive: 78%.
In the case of `COc1ccc(N2CCN(C(=O)CSc3nc4ccccc4nc3Cc3ccc(Cl)cc3)CC2)cc1`, the survival was inactive: 74%.
To `CCn1c2ccccc2c2cc(CN3CCN(Cc4ccc(OC)c(OC)c4)CC3)ccc21` belongs active: 17%; to `CCOc1ccc(CC(=O)NCCS(=O)(=O)N2CCN(c3ccc(OC)cc3)CC2)cc1`, inactive: 94%.
